The source of these data is PubChem BioAssay (NCI).

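Step 1: Grow cells in 96-well plates. Step 2: Expose to compound for 48 hours at 5 concentrations. Step 3: Interpolate endpoints linearly; if unreached, use highest concentration. Here, GI50 denotes the concentration required for 50% inhibition of growth. The concentration for full growth arrest is given as TGI.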

For this assay, the system named is NCI-H322M lung. Kind of assay: NCI-60 cell line screen, 48 h.
With `CCN1C(=O)N(CC)C2SC(N/N=C/C=C/c3ccccc3OC)=NC21` (stereo not given), the GI50 was 1.15 µM and the TGI is more than 100 µM.

As to `CCN(CC)c1ccc(/C=N/NC(=O)c2ccc(S(N)(=O)=O)cc2)c(O)c1`, the GI50 was 0.242 µM and the TGI was determined as 35.6 µM.

As for `CCCn1cnc2c(c1=N)C(c1ccc(F)cc1)c1sc3c(CC)cccc3c1O2` (stereo not given), the GI50 is 0.779 µM and the TGI was more than 100 µM.

With `CNC(=O)c1cc(Oc2ccc3nc(NC(=O)c4ccc(CN5CCCN(C)CC5)c(C(F)(F)F)c4)sc3c2)ccn1`, the GI50 was 1.65 µM and the TGI came out at 3.09 µM.

On to `C#CC(=O)N(c1ccc(OC)cc1OC)C(C(=O)NCC(=O)OCC)c1cccs1` (stereo not given), for which the GI50 is 14.5 µM and the TGI came to 28.6 µM.
